# Measurements: PubChem BioAssay (NCATS)
# Inconclusive results, whose numbers are uncertain, are shown with a selection of clear calls. For some of these results: Potencies of inconclusive entries are doubtful fits and often do not repeat. Active and inactive are the calls of the source. Unless noted, the call rests on the fitted dose curve; in most records, active means well fitted curve in the direction sought with a large enough effect; inconclusive means small, poorly fitted or top-dose-only effect, or another doubt; inactive means no such curve, though single readings can be large; an effect the other way counts as inactive or inconclusive.
# What was measured:
# [1] = target: Aldehyde dehydrogenase, mitochondrial (Homo sapiens) (UniProt P05091); experiment: qHTS for Inhibitors of the Aldehyde Dehydrogenase Family (ALDH2) Confirmatory screens (AID 2061303; active means well fitted inhibition curve with a large enough effect; inconclusive means small, poorly fitted or top-dose-only effect; inactive means no such curve, though single readings can be large or run the other way; title and protocol of this record describe different tests; further: potency means the concentration at half of the fitted maximal effect; nearly all actives have a fitted effect of over 45% in size); conditions: ALDH inhibition qHTS; activity change, negative = inhibition: at 45.4 µM (top of the series)
# [2] = qHTS for Inhibitors of the Aldehyde Dehydrogenase Family (ALDH1A2, ALDH1A3, ALDH2, ALDH3A1) (AID 2061307); conditions: ALDH inhibition qHTS; activity change, negative = inhibition: at 50.3 µM (top of the series) unless noted; further: test system not described further here; potency means the concentration at half of the fitted maximal effect; nearly all actives have a fitted effect of over 50% in size
# [3] = target: Retinaldehyde dehydrogenase 3 (Homo sapiens) (UniProt P47895); experiment: qHTS for Inhibitors of the Aldehyde Dehydrogenase Family (ALDH1A3) Primary screen (AID 2061315); conditions: ALDH inhibition qHTS; activity change, negative = inhibition: at 56 µM (top of the series) unless noted; further: potency means the concentration at half of the fitted maximal effect
# [4] = target: Aldehyde dehydrogenase, mitochondrial (Homo sapiens) (UniProt P05091); experiment: qHTS for Inhibitors of the Aldehyde Dehydrogenase Family (ALDH2) Primary screen (AID 2061308); further: potency means the concentration at half of the fitted maximal effect; nearly all actives have a fitted effect of over 55% in size
# [5] = target: Retinaldehyde dehydrogenase 3 (Homo sapiens) (UniProt P47895); experiment: qHTS for Inhibitors of the Aldehyde Dehydrogenase Family (ALDH1A3) Confirmatory screens (AID 2061311); conditions: activity change, negative = inhibition: at 46 µM (top of the series); further: potency means the concentration at half of the fitted maximal effect; nearly all actives have a fitted effect of over 60% in size
# [6] = target: Retinal dehydrogenase 2 (Homo sapiens) (UniProt O94788); experiment: qHTS for Inhibitors of the Aldehyde Dehydrogenase Family (ALDH1A2) Confirmation screens (AID 2061314); conditions: activity, negative = inhibition: at 45.9 µM (top of the series) unless noted; further: nearly all actives have a fitted effect of over 65% in size
# Tags describe the fitted curve by direction and shape.
Structure (SMILES),Potency [1],Potency [2],Potency [3],Potency [4],Potency [5],Potency [6]
C/C=C/c1ccc2oc(-c3ccc(O)c(OC)c3)c(C)c2c1,"inconclusive: 12.7 µM [inhibitor, partial curve]","inconclusive: 11.2 µM [inhibitor, full curve, poor fit]","inconclusive: 10 µM [inhibitor, partial curve, poor fit]",,,
CC(C)(O)c1ccccc1CC[C@H](SCC1(CC(=O)O)CC1)c1cccc(/C=C/c2ccc3ccc(Cl)cc3n2)c1,"inconclusive: 40 µM [inhibitor, partial curve, poor fit]",,,"inconclusive: 10 µM [inhibitor, partial curve, poor fit]","inconclusive: 28.3 µM [inhibitor, single point]",inactive
Cc1ccc(CNc2ccc(N3CCNCC3)cc2)cc1,"inconclusive: 12.7 µM [inhibitor, partial curve]","inconclusive: 20.1 µM [inhibitor, partial curve]","inconclusive: 17.8 µM [inhibitor, partial curve, poor fit]",,,
O=Cc1c(-c2ccccc2)no[n+]1[O-],active: 14.2 µM,,,"inconclusive: 39.8 µM [inhibitor, single point]",active: 4 µM,
CC(=O)N1CCN(c2ccc(NCc3cccs3)cc2)CC1,"inconclusive: 12.7 µM [inhibitor, partial curve]",active: 3.18 µM,"inconclusive: 14.1 µM [inhibitor, partial curve]",,,
